Hit rate of the full screen: of about 45,000 compounds, about 200 (0.44%) were called active. Another 7% or so got no clear call; they are omitted. Calls follow the shape of the dose curve; as a rule, active = well fitted activation curve with a large enough effect; inconclusive = small, poorly fitted or top-dose-only effect; inactive = no such curve, though single readings can be large or run the other way. The list shows a part of the results.

The assay is described as follows: qHTS of TDP-43 Inhibitors: NCGC Sytravon Library Screen. Also: 0% is about no effect; nearly all actives have a fitted effect of over 55% in size. The note with it: yeast TDP-43 toxicity rescue, BacTiter-Glo growth, 24 h; at 46.1 µM (top of the series). An outline of the steps:
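TDP-43-expressing yeast, pregrown in raffinose, seeded at OD600 0.02 in galactose medium with compound for 24 hr at 30 deg C. Growth read by BacTiter-Glo luminescence, so rescue of toxicity appears as activation.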
(In general: In qHTS, concentration-response curves come from the screen itself.)
For the molecule `Cc1[nH]c2ccc(OC(F)(F)F)cc2c1CCNCc1ccc(Cl)cc1`, the growth rescue (activation) is inactive: 2.98%.
To `COc1cccc(C(=O)C2CCCN(Cc3ccon3)C2)c1` (stereo not drawn) belongs inactive: -2.36%; to `O=C(COc1ccccc1)Nc1ccc(Cl)cc1C(=O)c1ccccc1`, inactive: -8.92%; to `CCC(=NCCCn1ccnc1)c1c(O)n(-c2ccccc2)c(=O)[nH]c1=O`, inactive: 15.2%.
For the molecule `O=C1/C(=C/c2cccnc2)N2CCC1CC2`, the growth rescue (activation) was inactive: 6.14%.
Then `Cn1cccc1/C=C1/C(=O)NC(=S)N(Cc2ccc(F)cc2)C1=O`, with inactive: 5.45%; and `C=CCn1c(O)c(C(CC)=Nc2cccc(C(=O)O)c2)c(=O)[nH]c1=O`, with inactive: -10.7%; and `CCCCC(=O)N/N=C/c1c(O)n(Cc2ccco2)c(=O)[nH]c1=O`, with inactive: 16.5%.
Then `CC(=O)OC1N=C(c2ccccc2Cl)c2cc(Br)ccc2NC1=O` (stereo not drawn), with inactive: -7.37%.
Consider `CCN1CCC2(CC1)NC(CO)(CO)CO2`, for which the growth rescue (activation) was inactive: 24.8%.
To `O=c1[nH]c(=S)n(-c2ccccc2)c(O)c1/C=N/N1CCCCC1c1cccnc1` (stereo not drawn) belongs inactive: 4.43%; to `COCCCNC(=O)c1c(NC(=O)c2ccco2)n(Cc2ccccc2)c2nc3ccccc3nc12`, inactive: -11.1%.
Then `C[C@]12C[C@H](O)[C@@H](O)CC1=CCC1C2CC[C@@]2(C)C1CC[C@@H]2O` (stereo partly drawn), with inactive: 0.646%.
Then `O=C(NC1CCCCC1)N1C[C@H]2C[C@@H](C1)c1cccc(=O)n1C2`, with inactive: 9.65%.
Consider `COc1ccc(NC(=O)C2C3CCC(O3)C2C(=O)O)c(OC)c1` (stereo not drawn), for which the growth rescue (activation) is inactive: 1.62%.
To `O=C1CN=C(c2ccc(Cl)cc2)c2oc3ccccc3c2N1` belongs inactive: 8.13%; to `Cn1cc(C(=O)Cc2ccccc2)c2ccccc21`, inactive: 11.9%.
On to `O=c1[nH]c(O)c(N=Nc2ccc(S(=O)(=O)N3CCOCC3)cc2)c(=O)[nH]1`, for which the growth rescue (activation) is inactive: -1.93%.
To `CC1CCSP(=O)(Oc2ccccc2)O1` (stereo not drawn) belongs inactive: -7.5%; to `O=C(Cc1ccccc1F)N1CCN(CC(=O)N2CCCC2)CC1`, inactive: 15.2%; to `O=C1NC(=O)N(Cc2ccccc2)C(=O)/C1=C\N1CCCc2ccccc21`, inactive: -19%.
Then `N#Cc1ccc(NC(=O)CN2CCN(C(=O)c3cccs3)CC2)cc1Cl`, with inactive: 16.9%; and `C=CCn1c(O)c(C(CC)=Nc2cccc(C(F)(F)F)c2)c(=O)[nH]c1=O`, with inactive: -2.29%; and `COc1cc2[nH]c(=O)n(-c3ccc(C)cc3)c(=O)c2cc1OC`, with inactive: 7.49%.
Then `CCOC(=O)c1c(/N=C/C2C(=O)NC(=S)NC2=O)sc2c1CCC2`, with inactive: -15.4%.
In the case of `O=C1NC(=O)C(=Cc2ccccc2OCCOc2ccc([N+](=O)[O-])cc2)C(=O)N1`, the growth rescue (activation) is inactive: -49.1%.
For `O=C1N(c2cccc(Cl)c2)C(c2cccnc2)N2CCCN12` (stereo not drawn), the growth rescue (activation) was inactive: 4.52%.
Then `CCC(=NCCCO)c1c(O)n(-c2ccc(OC)cc2)c(=O)[nH]c1=O`, with inactive: -17.7%; and `Cn1c(N)c(C(=O)COC(=O)Cc2ccccc2)c(=O)n(C)c1=O`, with inactive: 1.03%.
As to `CCCCn1c(NC(=O)c2ccc(Br)o2)c(C(=O)OCC)c2nc3ccccc3nc21`, the growth rescue (activation) was inactive: 6.37%.
To `N#Cc1c(/N=C/c2ccc(O)cc2O)sc2c1C1CCN2CC1` belongs inactive: -0.698%; to `Cc1ccc(N2C(=O)NC(=O)/C(=C\c3ccoc3)C2=O)cc1`, inactive: 14.6%; to `CC(Cc1cnccn1)NCc1c(C(=O)N2CCCCCCC2)nc2ccc(Cl)cn12` (stereo not drawn), inactive: 9.58%.
Then `CN1CCN(c2ccc([N+](=O)[O-])c(N3CCCCC3)c2)CC1`, with inactive: 0.403%.
Then `C[C@]12CC[C@H](O)CC1=CC(=O)C1C2CC[C@]2(C)C(=O)[C@H](O)CC12` (stereo partly drawn), with inactive: -9.91%; and `COC(=O)C(Cc1ccc(N(CCCl)CCCl)cc1)N=Cc1ccccc1O` (stereo not drawn), with inactive: 4.43%; and `O=P(C(Cl)Cl)(N1CCOCC1)N1CCOCC1`, with inactive: 7.8%.
For the molecule `CC(C)N1C(=O)NC(=O)C2(Cc3cc([N+](=O)[O-])ccc3N(C)C2c2ccccc2)C1=O` (stereo not drawn), the growth rescue (activation) is inactive: 6.06%.
To `Cc1ccccc1CN1CCN(C(=O)Cc2ccccc2)CC1` belongs inactive: -15.5%; to `COC(=O)Cn1cc(C=C2C(=O)NC(=O)NC2=O)c2ccccc21`, inactive: 20.4%; to `Cc1cccc(N2C(=O)NC(=O)/C(=C\c3cccn3-c3ccc(Cl)cc3)C2=O)c1`, inactive: -26.1%.
To `COc1ccc(Cn2c(O)c(/C=N/NC(=O)c3ccncc3)c(=O)[nH]c2=O)cc1` belongs inactive: -1.89%.
Then `CCOc1cc2c(cc1OCC)-n1cccc1C(c1ccc(C)cc1C)NC2` (stereo not drawn), with inactive: 12.9%.
Consider `Cc1cccc(CN2CCCC(C(=O)c3ccc4c(c3)OCO4)C2)n1` (stereo not drawn), for which the growth rescue (activation) was inactive: 10%.
To `O=C(Cc1ccccc1)Oc1cccc(N2C(=O)CCC2=O)c1` belongs inactive: 14.1%; to `CC1CCC/C=C/C2CC(O)CC2C(O)/C=C/C(=O)O1` (stereo not drawn), inactive: 14.3%.
In the case of `CC1N=C(c2ccccc2)c2cc(Br)ccc2NC1=O` (stereo not drawn), the growth rescue (activation) is inactive: -21.8%.
To `CC/C(=N\Nc1cccc2ccccc12)c1c(O)[nH]c(=O)[nH]c1=O` belongs inactive: -10.1%; to `Cc1c2cnn(CC(=O)N3CCC4(CC3)OCCO4)c(=O)c2c(C)n1Cc1ccc(F)cc1`, inactive: -21.6%.
To `COCCNC(=O)CN1C(=O)CN=C(c2ccccc2)c2ccccc21` belongs inactive: 7.48%; to `CCOc1ccc(N2C(=O)NC(=O)/C(=C/c3cnc(SC)nc3)C2=O)cc1`, inactive: 4.17%; to `Cc1cc(C)cc(-n2c(C)cc(/C=C3\C(=O)NC(=O)N(C)C3=O)c2C)c1`, inactive: 14.4%.
Then `CCc1cc2c(s1)N(CC(=O)OC)C(=O)CN=C2c1ccccc1OC`, with inactive: -0.688%.
As for `CCC(C)n1c(O)c(C=NCc2cccnc2)c(=O)[nH]c1=S` (stereo not drawn), the growth rescue (activation) is inactive: 5.58%.
To `CN1C(=O)N(C)C(=O)C2(Cc3cc(NC(=O)c4ccc(F)cc4)ccc3N3CCCC32)C1=O` (stereo not drawn) belongs inactive: -0.491%.
Regarding `O=C1C2CCCC1C(N1CCCC1)CC2` (stereo not drawn), the growth rescue (activation) is inactive: -6.33%.
To `Cc1ccc(OCC(=O)N2CCN(Cc3ccc(F)cc3)CC2)cc1` belongs inactive: 9.05%; to `O=c1[nH]c(=O)n(Cc2ccccc2)c(O)c1/C=C1\C=Nc2ccccc21`, inactive: -5.21%.
Then `COc1cccc(-n2c(/C=C\c3ccc(Cl)cc3)nc3ccccc3c2=O)c1`, with inactive: -8.68%; and `Cc1cccc(NP(C)(=O)c2nc3c(s2)CCCC3)c1` (stereo not drawn), with inactive: 7.72%.
Then `C=C(c1ccccc1)P(=O)(O)O`, with inactive: -0.129%; and `Oc1cc2c(cc1CN1CCN(c3ccccc3F)CC1)OCO2`, with inactive: -8.12%.
For `C=CCn1c(O)c(C=NCCCn2ccnc2)c(=O)[nH]c1=O`, the growth rescue (activation) was inactive: 0.126%.
On to `CN1C(=O)C(=Cc2cn(CC#N)c3ccccc23)C(=O)N(C)C1=O`, for which the growth rescue (activation) was inactive: 2.1%.
To `N#Cc1ccc(NC(=O)CCNC(=O)c2ccco2)cc1Cl` belongs inactive: -7.16%; to `CCCNC(=O)N1CCC2(CC1)OCCO2`, inactive: -9.85%; to `Cc1ccc(N2C(=O)NC(=O)/C(=C\c3cnc(-c4ccccc4)nc3)C2=O)cc1`, inactive: -6.02%.
On to `CCn1cc(CN2CCCC(C(=O)c3sccc3C)C2)cn1` (stereo not drawn), for which the growth rescue (activation) is inactive: -7.5%.
Then `Cc1ccc[n+](CC(O)Cn2c3ccccc3c3ccccc32)c1` (stereo not drawn), with inactive: -13.8%.
In the case of `OC(c1ccncc1)(c1ccc(F)cc1)c1ccc(F)cc1`, the growth rescue (activation) was inactive: 11.9%.
To `CCCNS(=O)(=O)c1ccc(OCC(=O)N2CCN(Cc3ccc4c(c3)OCO4)CC2)c(C)c1` belongs inactive: -26.5%.
To `COc1ccc(OCC#CCN2CCCCCC2)cc1` belongs inactive: -5.45%; to `O=C1NC(=O)N(Cc2ccco2)C(=O)/C1=C\c1cccn1CCOc1ccccc1`, inactive: 1.06%.
As to `C[C@]12CCC3C(C(=O)C[C@H]4C[C@@H](O)CC[C@]34C)C1CCC2=O` (stereo partly drawn), the growth rescue (activation) is inactive: -1.87%.
Take `CCC(=NCc1ccco1)c1c(O)n(-c2ccccc2C)c(=O)[nH]c1=O`: the growth rescue (activation) was inactive: -10.1%.
To `CC(C)Oc1cccc(C(=O)C2CCCN(C3CCOCC3)C2)c1` (stereo not drawn) belongs inactive: 2.08%; to `O=C(Cc1ccccc1)N1CCN(C/C=C/c2ccccc2)CC1`, inactive: 5.11%.
For `C[N+]1(CC(COCc2ccccc2)OC(=O)Cc2ccccc2)CCOCC1` (stereo not drawn), the growth rescue (activation) was inactive: -10.1%.
To `C[C@]12CC[C@H](O)CC1=CCC1C2CC[C@@]2(C)C1C[C@@H]1CC(=O)O[C@@H]12` (stereo partly drawn) belongs inactive: 5.61%.
Then `CCCc1nc2ccccc2c(=O)n1-c1ccc(O)cc1`, with inactive: -15.1%; and `C=Cn1ccnc1P(O)(=S)c1nc(C)c(CCOC(C)=O)s1` (stereo not drawn), with inactive: 11.6%; and `Nc1c2c(nc3sc4c(c13)CCCCC4)CCCC2`, with inactive: 8.36%.
On to `C#CC(CC)(CC)NC(=O)Nc1ccc(OCC)cc1`, for which the growth rescue (activation) was inactive: 4.65%.
Then `C/C(=N\N1CCCCCC1)c1c(O)n(-c2ccccc2)c(=O)[nH]c1=O`, with inactive: -16%; and `COc1ccc(Cc2c(O)[nH]c(=O)[nH]c2=O)c(OC)c1`, with inactive: 10.1%; and `CNC(=S)N1CC2CC(C1)c1cccc(=O)n1C2` (stereo not drawn), with inactive: -13.6%.
As for `O=C1NC(=S)NC(=O)C12C(c1ccccc1)NC(=S)NC2c1ccccc1` (stereo not drawn), the growth rescue (activation) was inactive: -0.971%.
To `c1ccc2c3c(ccc2c1)OCC1CONC31` (stereo not drawn) belongs inactive: 8.63%.
Then `COc1ccc(-n2nc(C(=O)NCC(=O)N3CCC4(CC3)OCCO4)c3ccccc3c2=O)cc1Cl`, with inactive: 22.2%.
To `O=c1[nH]c(=O)n(C2CCCCC2)c(O)c1/C=C/C=Nc1ccccc1` belongs inactive: 11.1%; to `C[C@]12CCC3C(C1CCC2=O)[C@H](O)C[C@H]1C[C@@H](O)CC[C@]31C` (stereo partly drawn), inactive: 19.7%.
Regarding `O=C1NC(=O)C(CCc2ccncc2)(Cc2ccc([N+](=O)[O-])cc2)C(=O)N1`, the growth rescue (activation) was inactive: 6.68%.
Then `CC(=O)c1ccc(OC(=O)N(C)c2ccccc2)cc1`, with inactive: 15.7%.

Values taken from PubChem BioAssay AID1347073 (National Center for Advancing Translational Sciences (NCATS), 2019).
